The whole screen tested about 310,000 compounds, of which about 14,000 (4.5%) showed an effect of 50% or more. The effect is printed as a negative number. The list shows a part of the results.
These compounds were tested against human ether-à-go-go-related gene (hERG) potassium channel (human, UniProt Q12809) (assay: primary screen, population patch clamp on CHO cells stably expressing hERG).
Sequence of human ether-à-go-go-related gene (hERG) potassium channel (Q12809 whole entry, looked up): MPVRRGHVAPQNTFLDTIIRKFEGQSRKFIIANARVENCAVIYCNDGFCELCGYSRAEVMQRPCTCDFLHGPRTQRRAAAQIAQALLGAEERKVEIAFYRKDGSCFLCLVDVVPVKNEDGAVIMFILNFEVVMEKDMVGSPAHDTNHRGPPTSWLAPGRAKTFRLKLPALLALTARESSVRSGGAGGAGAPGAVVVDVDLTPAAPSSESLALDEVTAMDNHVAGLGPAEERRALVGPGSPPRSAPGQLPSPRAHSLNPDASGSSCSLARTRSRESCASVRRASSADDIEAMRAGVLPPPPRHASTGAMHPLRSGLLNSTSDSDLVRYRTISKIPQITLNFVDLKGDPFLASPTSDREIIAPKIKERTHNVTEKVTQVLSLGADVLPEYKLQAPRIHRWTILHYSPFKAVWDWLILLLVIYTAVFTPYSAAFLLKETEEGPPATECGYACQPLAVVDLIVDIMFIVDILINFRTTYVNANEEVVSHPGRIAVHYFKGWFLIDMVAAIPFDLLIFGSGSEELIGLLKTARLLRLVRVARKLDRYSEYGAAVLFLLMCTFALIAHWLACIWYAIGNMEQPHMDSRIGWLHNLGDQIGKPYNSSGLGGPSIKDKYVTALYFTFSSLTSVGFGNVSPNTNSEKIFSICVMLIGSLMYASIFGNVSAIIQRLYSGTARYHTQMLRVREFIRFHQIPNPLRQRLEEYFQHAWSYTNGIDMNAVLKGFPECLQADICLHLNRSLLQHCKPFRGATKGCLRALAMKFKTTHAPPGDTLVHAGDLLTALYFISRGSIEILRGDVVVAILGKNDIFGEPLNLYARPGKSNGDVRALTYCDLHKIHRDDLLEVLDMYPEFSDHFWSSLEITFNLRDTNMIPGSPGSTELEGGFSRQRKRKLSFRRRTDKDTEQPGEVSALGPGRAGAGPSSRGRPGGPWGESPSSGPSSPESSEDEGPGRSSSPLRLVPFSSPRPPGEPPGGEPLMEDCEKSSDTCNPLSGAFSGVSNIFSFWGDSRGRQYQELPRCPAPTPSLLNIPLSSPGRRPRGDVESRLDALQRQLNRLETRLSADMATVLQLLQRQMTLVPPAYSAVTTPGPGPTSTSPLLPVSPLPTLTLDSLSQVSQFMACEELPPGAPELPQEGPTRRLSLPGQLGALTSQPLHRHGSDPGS
In the case of `CCN(CC(=O)N1CCOCC1)S(=O)(=O)c1ccc2ccccc2c1`, the “hERG current change (%, negative = inhibition) at 10uM” value is reported as 11.1%. In the case of `COCC1CCCN(C(=O)c2ccc3oc(CCCc4ccccc4)nc3c2)C1` (centres unmarked), the “hERG current change (%, negative = inhibition) at 10uM” value is reported as -16.2%. In the case of `N#Cc1c(C#N)c(O)c2ccccc2c1O`, the “hERG current change (%, negative = inhibition) at 10uM” value is reported as 18.9%. `Nc1nnn(CC(=O)N/N=C/c2cccc(Cl)c2)n1` was tested, and the “hERG current change (%, negative = inhibition) at 10uM” value was 4.76%. For `CC1(C)CC(=O)C=C(Nc2ccc3c(c2)OCCO3)C1`, the “hERG current change (%, negative = inhibition) at 10uM” value was 17.7%. For `CC(C)(C)n1nnnc1C(c1cccs1)N1CCN(c2ccccc2)CC1` (centres unmarked), the “hERG current change (%, negative = inhibition) at 10uM” value was -10.5%. With `COc1cccc(CN2CCN(S(=O)(=O)c3ccc(NC(C)=O)cc3)CC2)c1OC.O=C(O)C(=O)O` the “hERG current change (%, negative = inhibition) at 10uM” value was 1.45%. In the case of `COc1ccccc1CC(=O)Nc1ccc(-c2noc(COc3cccc(C)c3C)n2)cc1`, the “hERG current change (%, negative = inhibition) at 10uM” value is reported as 17.4%. `O=C(N/C(=C\c1ccc(F)cc1)C(=O)N1CCCCCC1)c1ccccc1` was tested, and the “hERG current change (%, negative = inhibition) at 10uM” value was -11.6%. With `Cc1csc2ncnc(N3CCN(S(=O)(=O)c4cccc(C(F)(F)F)c4)CC3)c12` the “hERG current change (%, negative = inhibition) at 10uM” value was -2.6%. For `COc1ccc(CC(=O)Oc2ccccc2[N+](=O)[O-])cc1`, the “hERG current change (%, negative = inhibition) at 10uM” value was 16.6%. In the case of `Cc1c(NC(=O)C(C)OC(=O)CCc2ccccc2)c(=O)n(-c2ccccc2)n1C` (centres unmarked), the “hERG current change (%, negative = inhibition) at 10uM” value is reported as 11.3%. `CC1=NN(c2nc(-c3ccc(C)cc3)cs2)C(=O)C1N=Nc1cccc(C)c1` (centres unmarked) was tested, and the “hERG current change (%, negative = inhibition) at 10uM” value was 10.6%. In the case of `O=C(CCn1c(=O)oc2ccccc21)Nc1nc2ccccc2s1`, the “hERG current change (%, negative = inhibition) at 10uM” value is reported as -41.4%. With `O=C1c2ccccc2C2(c3ccccc3)NCCN12` (centres unmarked) the “hERG current change (%, negative = inhibition) at 10uM” value was 5.86%. For `CC(C)CC1Nc2ccc(C(=O)NCCCN3CCCCC3C)cc2NC1=O` (centres unmarked), the “hERG current change (%, negative = inhibition) at 10uM” value was 3.4%. With `COc1ccc(C(=O)NCc2nnc(SCC(=O)Nc3ccccc3F)o2)cc1` the “hERG current change (%, negative = inhibition) at 10uM” value was 0.675%. `NC1=NC2=C(CCCC2)C2(CCCCC2)S1` was tested, and the “hERG current change (%, negative = inhibition) at 10uM” value was -23.2%. For `Cc1ccc2c(c1)cc1c(=O)n(CC(=O)N3CCCC3)nc(C)n12`, the “hERG current change (%, negative = inhibition) at 10uM” value was 12.3%. For `COc1ccc(-n2c(=O)c3c4c(sc3n(CC(N)=O)c2=O)CCCCC4)cc1`, the “hERG current change (%, negative = inhibition) at 10uM” value was 8.5%. For `CCOC(=O)c1cnn(-c2ccccc2)c1-n1cccc1C(=O)C(=O)Nc1ccc(OC)cc1`, the “hERG current change (%, negative = inhibition) at 10uM” value was 11.8%. With `O=C(COC(=O)CCC(=O)c1cccs1)NCc1ccccc1` the “hERG current change (%, negative = inhibition) at 10uM” value was 33.1%. For `COc1ccccc1NS(=O)(=O)c1cc(NC(=O)c2cc3ccccc3oc2=O)ccc1C`, the “hERG current change (%, negative = inhibition) at 10uM” value was 8.21%. In the case of `CC(C)N1CC(C(=O)Nc2cccc([N+](=O)[O-])c2)CC1=O` (centres unmarked), the “hERG current change (%, negative = inhibition) at 10uM” value is reported as -5.14%. For `COc1cccc(N2CCN(CC(=O)Nc3ccnn3C3CCCC3)CC2)c1`, the “hERG current change (%, negative = inhibition) at 10uM” value was -3.2%. In the case of `Cc1ccc(S(=O)(=O)CCC(=O)OCc2cc(C)ccc2C)cc1`, the “hERG current change (%, negative = inhibition) at 10uM” value is reported as 4.14%. In the case of `O=C(COC(=O)Cc1cccc(C(F)(F)F)c1)Nc1ccc2c(c1)OCCO2`, the “hERG current change (%, negative = inhibition) at 10uM” value is reported as 13.2%. `CN1CCNC(=O)C1CC(=O)NCCC1=CCCCC1` (centres unmarked) was tested, and the “hERG current change (%, negative = inhibition) at 10uM” value was 18.2%. For `CCOC(=O)C1CCN(CCC(=O)Nc2cccc(C)c2)CC1.Cl`, the “hERG current change (%, negative = inhibition) at 10uM” value was -66.8%. `COc1ccc(S(=O)(=O)N2CCN(c3ccc(F)cc3)CC2)cc1C(=O)N1CCOCC1` was tested, and the “hERG current change (%, negative = inhibition) at 10uM” value was 5.87%. `CCCCn1c(O)c(C(C)=Nc2cccc(C(=O)O)c2)c(=O)[nH]c1=O` was tested, and the “hERG current change (%, negative = inhibition) at 10uM” value was -14.4%. For `O=C(CN1C(=O)c2cccc3cccc1c23)N1CCN(c2cccc(Cl)c2)CC1`, the “hERG current change (%, negative = inhibition) at 10uM” value was -9.66%. For `CC(=O)c1cccc(NC(=O)c2ccc3c(c2)C(=O)N(Cc2cccnc2)C3=O)c1`, the “hERG current change (%, negative = inhibition) at 10uM” value was -9.85%. For `COc1ccc2cc(OCC(=O)NNC(=O)Nc3ccc(C(C)=O)cc3)ccc2c1`, the “hERG current change (%, negative = inhibition) at 10uM” value was 9.54%. With `CC1(C)O[C@@H]1COc1c2ccoc2cc2oc(=O)ccc12` the “hERG current change (%, negative = inhibition) at 10uM” value was -19.4%. In the case of `CN(c1ccccc1C(=O)NCc1ccccn1)S(C)(=O)=O`, the “hERG current change (%, negative = inhibition) at 10uM” value is reported as 9.24%. In the case of `CNC(=O)c1c(NC(=O)c2ccco2)sc(C)c1C`, the “hERG current change (%, negative = inhibition) at 10uM” value is reported as 1.42%. In the case of `CCN(CC)S(=O)(=O)c1ccc(/C=C/C(=O)NC2CCCCC2)cc1`, the “hERG current change (%, negative = inhibition) at 10uM” value is reported as 5.02%. In the case of `CC(C)CCN(C(=S)Nc1cccc(F)c1)C(C)c1cccs1` (centres unmarked), the “hERG current change (%, negative = inhibition) at 10uM” value is reported as 3.83%. For `C/C(=N\NC(=O)c1ccoc1C)c1cccc2ccccc12`, the “hERG current change (%, negative = inhibition) at 10uM” value was 19%. `Cc1cc(Cn2nc(-c3ccccc3C)cc2C(=O)O)on1` was tested, and the “hERG current change (%, negative = inhibition) at 10uM” value was 17%. `COc1ccc(/C=C/C(=O)NCC(=O)N/N=C/c2ccc(OC)cc2)cc1` was tested, and the “hERG current change (%, negative = inhibition) at 10uM” value was 18.2%. `CCN(CC(=O)NCCCn1ccnc1)S(=O)(=O)c1ccc(C)cc1` was tested, and the “hERG current change (%, negative = inhibition) at 10uM” value was -14.8%. For `Cc1ccc(S(=O)(=O)N2CCCCC2)cc1NC(=O)Cn1ccc(C(F)(F)F)n1`, the “hERG current change (%, negative = inhibition) at 10uM” value was -8.63%.

— paper PMC4336329 (PLoS ONE, 2015)
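Further: peak tail current of the secondary pulse compared with the same well before compound.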
